# Data reported in PMC6212790.
# The list shows a part of the results. At the low end of the ranking, values are background and their order means little.
# Biological target: T1, GST-Rok-C97-191 (UniProt O34857)
# T1 sequence: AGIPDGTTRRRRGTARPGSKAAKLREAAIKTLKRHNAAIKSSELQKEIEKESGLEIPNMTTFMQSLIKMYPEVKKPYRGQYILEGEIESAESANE
# Test: protein binding microarray;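 further: rank score from −0.5 (least bound) to 0.5 (best bound)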
# Details: Rok is a gene silencer of Bacillus subtilis; high values mean tight binding; most listed sequences are background and not binding sites; double strand, one strand shown
row,Sequence,binding signal [E-score]
1,ATTCCCTG,-0.196
2,CGTGTTGA,-0.21
3,CGATGCGC,0.00596
4,AGTGCAAA,0.0942
5,ACTTTCAT,0.0835
6,CTCAGGTA,-0.00569
7,AATCAAAG,-0.0782
8,AATAGACA,0.141
9,ACTTAGCG,0.164
10,ATCACCGC,-0.126
11,TATTTACA,0.235
12,GCGCAGTA,0.0464
13,CAGATTTC,-0.0962
14,AAAATGAG,0.113
15,AACATCTG,-0.09
16,AAAGCTAT,0.155
17,CCATTGCA,-0.0294
18,CAATATAA,0.295
19,CTACTTGC,0.12
20,CCCACCAA,-0.109
21,AGTGGGCC,-0.355
22,GCAGTGGC,-0.345

row,Sequence,binding signal [E-score]
1,ATTCTTGG,0.0376
2,CCTCACGC,-0.157
3,CCAGACCC,-0.29
4,AAAATTTG,0.239
5,CTCACTCC,-0.146
6,CAATGATC,-0.00687
7,TTAATAAA,0.244
8,GATCCTCA,-0.19
9,ACCGTGGG,-0.292
10,AACCTGCT,-0.177
11,CAACATAC,0.239
12,CGACCGCC,-0.216
13,TAGCCCGA,0.0451
14,TATTGTCA,0.0895
15,AATTAATG,0.163
16,CCGTTTTA,0.131
17,ACTATGAT,0.277
18,AACGAATT,0.267
19,CGTCTCTA,-0.0417
20,GCGGTCAC,-0.118
21,ACAACAGT,-0.0306
22,TAAGGAAA,-0.0965

row,Sequence,binding signal [E-score]
1,GTATGGAC,0.0275
2,TATATGCA,0.228
3,ACAGCGAT,0.0724
4,ATTGACTG,0.0163
5,AGTTCAAT,0.126
6,ACGGGAGT,-0.117
7,CACAATTC,-0.0205
8,GCAAAACC,-0.0329
9,CCCGATAC,0.0751
10,CCGCCTCA,-0.215
11,CTCTATCC,-0.0544
12,AGGCGAGC,-0.185
13,GAACGCGC,0.0692
14,TAGGTCGA,0.0576
15,CGCACCGA,-0.0321
16,ATAGGGAA,0.167
17,GCCTGGGA,-0.195
18,ATGACCTC,-0.18
19,ACAGAAAG,0.155
20,ACTGCGTC,-0.00428
21,TAGGAATA,0.194
22,CGCATGCA,-0.138

row,Sequence,binding signal [E-score]
1,AATCCCCA,-0.127
2,ACAGGCAT,0.0202
3,CCCTACGG,-0.308
4,AAGAGTTG,-0.0342
5,CAGGTCCA,-0.386
6,AATTTGCG,0.091
7,GCTGTGCA,-0.174
8,ACAATCTG,0.115
9,AATAATTC,0.269
10,CATTCAAC,-0.0345
11,CTCGCCTA,0.088
12,ATCAATCG,-0.00803
13,ATACAGCG,-0.0288
14,ACCACGAG,-0.182
15,ACGTACAG,0.152
16,CACCCTGC,-0.119
17,GAGGTTAA,0.0835
18,CGAGCTAC,-0.0457
19,TATACGCA,0.198
20,GGCCCGCC,-0.312
